Drawing on PubChem BioAssay (NCATS), this text covers IC50 and AC50 for 28 molecules.

The term IC50 denotes the concentration that inhibits the measured activity by half. Usually AC50 stands for the concentration giving half of the maximal activity seen.

SMILES strings stand for the structures. The list shows a part of the results. These are further read-outs of the screen, such as a control signal, another cell line or another target. No call is given for them. For some assays here: Compounds called inactive in the main read-out are mostly missing here. The note in brackets gives the kind of curve behind each potency; many fits are weak.
Tags describe the fitted curve by direction and shape.

The target in one experiment is Histamine N-methyltransferase (Homo sapiens) (UniProt P50135). The experiment in a line: Confirmatory Screen for Target Class Profiling of Small Molecule Inhibitors of Methyltransferases (AID 1745852).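 Further: inhibitor potency for blocking SAH production.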 Conditions: MTase-Glo luminescence, SAH detection, recombinant enzyme; measured here: HNMT inhibition potency.
Sequence of UniProt P50135 (P50135 whole entry, looked up): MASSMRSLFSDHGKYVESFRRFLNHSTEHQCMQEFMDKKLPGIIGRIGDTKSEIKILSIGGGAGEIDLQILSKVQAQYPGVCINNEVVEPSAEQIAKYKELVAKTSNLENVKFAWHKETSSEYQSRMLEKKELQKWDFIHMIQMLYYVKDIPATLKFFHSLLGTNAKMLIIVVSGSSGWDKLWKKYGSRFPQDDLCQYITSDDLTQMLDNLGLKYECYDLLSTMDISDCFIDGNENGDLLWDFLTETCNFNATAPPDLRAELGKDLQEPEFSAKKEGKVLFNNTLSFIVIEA
As to `Cc1ccc(Cn2c(=O)c3ccccc3n3c(CCC(=O)N4CCC(N5CCCCC5)CC4)nnc23)cc1`, the IC50 is 4.82 µM [falling, full curve]. In the case of `COc1cc2nc(N3CCN(C)CC3)nc(NC3CCN(Cc4ccccc4)CC3)c2cc1OC`, the IC50 is 21.7 µM [falling, partial curve]. On the same count and under the same terms, with `O=C(CCc1nnc2n(Cc3ccccc3Cl)c(=O)c3ccccc3n12)NCCc1c[nH]c2ccccc12` the figure was 15.2 µM [falling, partial curve]. On the same count and under the same terms, next, `Cc1cnc(CCNC(=O)c2n[nH]c(=O)c3ccccc23)n1C1CCCCC1`: 5.41 µM [falling, partial curve]; `CC(C)c1nccn1CCCNC(=O)c1ccc(N2CCCC(CO)C2)nc1` (configuration not stated): 19.2 µM [falling, partial curve]; `COc1cc2c(NC3CCN(C)CC3)nc(N3CCCN(C)CC3)nc2cc1OCCCN(C)C`: 21.7 µM [falling, partial curve]. In the case of `CC1CCCCN1CCNC(=O)CCc1nnc2n(Cc3ccc(F)cc3)c(=O)c3ccccc3n12` (configuration not stated), the IC50 was 9.61 µM [falling, partial curve]. The same measure, in the same setting: next, `COc1ncccc1-c1nccn2c(C3CN(Cc4ccccc4O)C3)ncc12`: 1.56 µM [falling, full curve]; `O=C([C@@H]1CCCN(c2ccc3[nH]c(C4(n5cc(Cl)cn5)CC4)nc3n2)C1)N1CCCC1`: 24.1 µM [falling, partial curve]; `O=C(c1ccc(Cl)cc1)N1CC2(CCN(CC3CC3)CC2)Cc2ccccc21`: 7.64 µM [falling, partial curve]. With `COc1cccc(Nc2cc3c(cn2)CN(Cc2cccnc2)CCN3)c1`, the IC50 was 7.84 µM [falling, partial curve]. The same measure, in the same setting: next, `O=C(Cn1ccc2cc(S(=O)(=O)N3CCCCC3)ccc21)NCCCN1CCCCC1`: 17.1 µM [falling, partial curve]; `N#Cc1cnc(N2CC3CCC(C2)N3CC(F)(F)F)s1`: 31.2 µM [falling, partial curve]; `CN(CCCNC(=O)CCc1nnc2n(Cc3ccccc3)c(=O)c3ccccc3n12)Cc1ccccc1`: 19.2 µM [falling, partial curve]. Take `CN(CCc1nc2ccc(Cl)cc2[nH]1)c1cc(C2CC(O)C2)nc(N)n1` (configuration not stated): the IC50 was 15.2 µM [falling, partial curve]. Still for that read-out and setting: next, `COc1cc(/C=N\NC(=O)c2ccc3c(c2)OCO3)ccc1OCc1ccccc1`: 1.21 µM [falling, full curve]; `C=CC(=O)Nc1ccc(CN2C(=O)N(c3cc(OC)cc(OC)c3)Cc3cnc(Nc4ccc(N5CCN(C)CC5)cc4)nc32)cc1`: 12.1 µM [falling, partial curve].

The next experiment addresses Nicotinamide N-methyltransferase (Homo sapiens) (UniProt P40261). Described as above. The following applies: MTase-Glo luminescence, SAH detection, recombinant enzyme; measured here: NNMT inhibition potency.
Sequence of UniProt P40261 (P40261 whole entry, looked up): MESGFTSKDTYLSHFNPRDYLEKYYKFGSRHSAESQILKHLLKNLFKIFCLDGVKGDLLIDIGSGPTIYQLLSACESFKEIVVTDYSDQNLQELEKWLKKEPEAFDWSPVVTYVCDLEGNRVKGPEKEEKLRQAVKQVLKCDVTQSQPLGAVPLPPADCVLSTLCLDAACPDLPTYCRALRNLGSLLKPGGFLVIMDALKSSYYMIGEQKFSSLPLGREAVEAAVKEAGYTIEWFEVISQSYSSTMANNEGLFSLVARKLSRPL
For `CCCCN(C)C(=O)c1c(C)sc2ccn(CCC)c(=O)c12`, the IC50 is 19.2 µM [falling, partial curve, poor fit]. Same read-out and setting: next, `N.N.N.N.N.N.N.N.N.N.N.N.N.N.O.O.[Ru+4].[Ru+5].[Ru+5]`: 30.6 µM [falling, partial curve, poor fit]; `CCCSc1nc(N[C@@H]2C[C@H]2c2ccc(F)c(F)c2)c2nnn([C@@H]3C[C@H](OCCO)[C@@H](O)[C@H]3O)c2n1`: 24.1 µM [falling, partial curve]. Still for that read-out and setting: with `CC(C)(O)C(=O)N1CCN(c2ccc(C(F)(F)F)c(C3=C(c4c[nH]c5ccccc45)C(=O)NC3=O)c2)CC1` the figure was 24.1 µM [falling, partial curve]; with `Brc1c(Br)c(Br)c2[nH]cnc2c1Br`, 27.3 µM [falling, partial curve].

The target in another experiment is Phenylethanolamine N-methyltransferase (Homo sapiens) (UniProt P11086). The description is as above. The following applies: MTase-Glo luminescence, SAH detection, recombinant enzyme; measured here: PNMT inhibition potency.
Sequence of UniProt P11086 (P11086 whole entry, looked up): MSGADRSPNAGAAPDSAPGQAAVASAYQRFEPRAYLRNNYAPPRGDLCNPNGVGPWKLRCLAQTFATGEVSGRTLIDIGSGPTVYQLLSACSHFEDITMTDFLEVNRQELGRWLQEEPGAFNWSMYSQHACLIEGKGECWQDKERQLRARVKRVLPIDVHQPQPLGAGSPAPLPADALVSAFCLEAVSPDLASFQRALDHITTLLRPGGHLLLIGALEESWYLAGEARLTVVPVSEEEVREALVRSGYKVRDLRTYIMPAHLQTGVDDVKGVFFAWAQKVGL
`CNc1cc2c(Nc3cccc(Br)c3)ncnc2cn1`: the IC50 was 4.82 µM [falling, full curve]. On the same count and under the same terms, next, `OC[C@H]1O[C@@H](Oc2ccc(O)c3cccc(O)c23)[C@H](O)[C@@H](O)[C@@H]1O`: 10.6 µM [falling, partial curve]. The same measure, in the same setting: next, `COc1ccccc1-c1[nH]nc2ncc(C(=O)NCC3CC3)nc12`: 35 µM [falling, partial curve]; `CCCCN(C)C(=O)c1c(C)sc2ccn(CCC)c(=O)c12`: 2.41 µM [falling, full curve]; `CCCSc1nc(N[C@@H]2C[C@H]2c2ccc(F)c(F)c2)c2nnn([C@@H]3C[C@H](OCCO)[C@@H](O)[C@H]3O)c2n1`: 34.1 µM [falling, single point].

`CC(C)(O)C(=O)N1CCN(c2ccc(C(F)(F)F)c(C3=C(c4c[nH]c5ccccc45)C(=O)NC3=O)c2)CC1`: the IC50 is 24.1 µM [falling, partial curve]. The same measure, in the same setting: with `Brc1c(Br)c(Br)c2[nH]cnc2c1Br` the figure was 24.3 µM [falling, partial curve].

System in another experiment: not listed separately
Kind of experiment: qHTS drug screen for cell cycle checkpoint inhibitors in PARPi-resistant BRCA-mutant ovarian cancer cell lines. (AID 1963452). The following applies: PEO1/OlaR viability, CellTiter-Glo luminescence, 96 h; measured here: PEO1 parental viability. Put shortly: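 PEO1, PEO4 and PEO1/OlaR ovarian cancer cells, 600 per well, exposed 96 h at 37C to a dilution series. Viability read by CellTiter-Glo luminescence, normalized to DMSO and empty wells; activity summarized as Z-AUC.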
(In general: Quantitative high-throughput screening tests each substance at several concentrations.)
Consider `CCCCc1nc2cc(/C=C/C(=O)NO)ccc2n1CCN(CC)CC`, for which the half-maximal activity concentration (AC50) was 3.09 µM [falling, full curve]. `CN(C)CCCNC(=O)c1ccc(-c2cc(O)c3ncccc3c2)cc1`: the AC50 is 12.3 µM [falling, partial curve, poor fit]. Consider `CC[C@H](C)C(=O)O[C@H]1CCC=C2C=C[C@H](C)[C@H](CC[C@@H]3C[C@@H](O)CC(=O)O3)[C@H]21`, for which the AC50 is 12.3 µM [falling, partial curve].
